# The campaign covered roughly 46,000 compounds. About 60 (0.1%) were called active. About 3% were inconclusive and are not listed. Calls follow the shape of the dose curve; as a rule, active = well fitted inhibition curve with a large enough effect; inconclusive = small, poorly fitted or top-dose-only effect; inactive = no such curve, though single readings can be large or run the other way. The list shows a part of the results.
# Assay: Primary qHTS assay for Inhibitors of ovarian cancer metastasis using an organotypic tumor microenvironment (TME) model. Also: nearly all actives have a fitted effect of over 65% in size.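 As to Potency: count of GFP cancer cells still attached after washing and fixation.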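 As to activity change, negative = inhibition: plate controls were DMSO wells for no effect and tomatine positive control wells for full effect.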
# Details: SKOV3ip1-GFP adhesion/invasion on 3D omental model, fluorescence; series mostly up to 45.8 µM; activity change, negative = inhibition: at the top concentration
# How it was run: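 A 3D layer of primary human omental fibroblasts, mesothelial cells, fibronectin and collagen I, grown 48 hr, received SKOV3ip1-GFP cells in serum-free medium plus compounds at 0.36-46 umol/L. After 2 hr RT and 16 hr 37 C, fixed adherent GFP cells were counted; normalized to DMSO and tomatine.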
# Potency is read from the fitted curve at half-maximal effect.
SMILES,Potency,"activity change, negative = inhibition",outcome
COc1cccc(NC(=O)CSc2c3c(nc4ccccc24)CCCC3)c1,active: 11.2 µM,,
Cc1cccc(NC(=O)CN2C(=O)CSc3ccc(S(=O)(=O)N4CCCC4)cc32)c1C,,inactive: -7.31%,
CCOc1ccc(N(CC)S(=O)(=O)N2CCCC(C(=O)Nc3ccc(OC)c(Cl)c3)C2)cc1 (stereo not given),,inactive: 9.21%,
Cc1nn(C(=O)c2cccc([N+](=O)[O-])c2C)c(C)c1S(=O)(=O)N1CCCCCC1,,inactive: -0.134%,
Cc1c(Cl)ccc2sc(N3CCN(C(=O)C4CC4)CC3)nc12,,inactive: -7.81%,
COc1ccc(-c2onc(C)c2C)cc1S(=O)(=O)N1CCN(c2cc(C)ccc2C)CC1,,,inactive
COc1ccc(-c2cc3nc(C)c(CCC(=O)NC(C)c4ccccc4)c(C)n3n2)c(OC)c1 (stereo not given),,inactive: -9.35%,
O=C(Nc1ccccc1C(F)(F)F)N1CC=C(c2c[nH]c3ccccc23)CC1,,,inactive
COC(=O)CC(=O)CSc1nc2cc(C(=O)NCC(C)C)ccc2c(=O)n1CCc1ccccc1,,,inactive
CC1CCN(S(=O)(=O)c2ccc3c(c2)CCN3C(=O)Nc2ccc(Br)cc2F)CC1,,inactive: 3.37%,
Cc1cccc(NC(=O)N2CCC(CN3CCCCCC3)CC2)c1C,,,inactive
Cc1ccc(C2CCN(C(=O)c3cnn(-c4ccc(C)c(C)c4)c3C3CCN(C(=O)OC(C)(C)C)CC3)C2)cc1 (stereo not given),,,inactive
Cc1cc(C)c(OCCOCCn2c(-c3ccc(Cl)cc3)nc3ccccc3c2=O)c(C)c1,,inactive: -5.68%,
Cc1nc(SCC(=O)Nc2ccc(C(=O)O)cc2)n[nH]1,,inactive: 6.16%,
COc1ccc(OC)c(NC(=O)CC(=O)Nc2ccc3nc4n(c(=O)c3c2)CCCCC4)c1,,,inactive
CCOc1ccccc1C(=O)N1CCC(c2nc3ccccc3o2)CC1,,inactive: -29.7%,
CCc1ccccc1NC(=O)Cn1nc(N2CCN(c3ccccc3OC)CC2)ccc1=O,,inactive: 2.25%,
Cc1ccc(C)c(N2CCN(C(=O)C(CC(C)C)NS(=O)(=O)c3ccc4nc(C)sc4c3)CC2)c1 (stereo not given),,inactive: 0.886%,
Cc1cc(F)ccc1NC(=O)CCn1nc(C)c(S(=O)(=O)N2CCCCC2)c1C,,inactive: 5.27%,
COc1ccccc1C(=O)Nc1ccc(S(=O)(=O)Nc2ncccn2)cc1,,inactive: 5.15%,
Cc1cccc(-n2nc(C)c(C(=O)N3CCN(c4ccccc4)CC3)c2-n2cccc2)c1,,inactive: 3.33%,
CS(=O)(=O)N(Cc1ccccc1)c1ccc(C(=O)Nc2ccc(Cl)cc2)cc1,,inactive: -29.6%,
NC(=O)CSc1nc2ccc(NC(=O)COc3ccccc3Cl)cc2s1,,inactive: 6.37%,
Cc1cccc(OCCCn2c(CCNC(=O)C3CCCCC3)nc3ccccc32)c1,,,inactive

SMILES,Potency,"activity change, negative = inhibition",outcome
CCOc1ccccc1OCCNC(C)Cc1ccc(OC)c(S(N)(=O)=O)c1 (stereo not given),,inactive: 11.6%,
Cn1c(=O)[nH]c(=O)c2c1nc(CN1CCN(c3ccccc3F)CC1)n2Cc1ccc(F)cc1,,inactive: 14.6%,
COc1ccccc1CN(Cc1c(Cl)cccc1Cl)S(=O)(=O)c1ccc(Br)cc1,,inactive: 4.94%,
Cc1ccc(C)c(N2CCN(c3nc4ccc(C(=O)c5ccccc5)cc4n4cnnc34)CC2)c1,,inactive: 6.41%,
CCOC(=O)c1cnc2c(C)cccc2c1Nc1ccc(OC(C)C)cc1,,inactive: 1.77%,
COc1cccc(-c2nc(SCC(=O)Nc3ccc4c(c3)OCCO4)c(-c3ccc(C)cc3)[nH]2)c1,,inactive: -18.4%,
COc1ccc(Cl)cc1NC(=O)c1cc(S(=O)(=O)N(C)Cc2ccccc2)ccc1F,,inactive: 9.83%,
Cc1ccc(Cl)cc1NC(=O)c1oc2ccc(S(=O)(=O)N3CCCCCC3)cc2c1C,,inactive: -4.36%,
O=C(NCCc1ccc(Cl)cc1)c1ccc(CSCc2cccc(Cl)c2)o1,,inactive: -11.5%,
Cn1cc(S(=O)(=O)c2cccc(Cl)c2)c(=O)c2cc(F)c(N3CCCCC3)cc21,,inactive: 2.66%,
CCCN1C(=O)C(Cc2nc3ccccc3c(=O)n2-c2ccc(OC)cc2)c2cc(C)ccc21 (stereo not given),,inactive: 4.46%,
CCc1cccc(C)c1NC(=O)CSc1nc2c(c(=O)[nH]1)CCC2,,inactive: -5.04%,
CCCCNC(=O)c1ccc2c(c1)NC(=O)C(CS(=O)(=O)Cc1ccc(C)cc1)N2 (stereo not given),,inactive: 6.73%,
CC(=O)N1CCc2c(sc3c2c(=O)n(-c2ccc(C)cc2)c(=O)n3Cc2ccccc2C)C1,,inactive: -23%,
Cc1ccc(C(=O)Nc2ccc3oc(-c4ccccc4C)nc3c2)cc1,,inactive: 2.75%,
CCCN(C(=O)Nc1cn(CC(C)C)c(=O)c2ccccc12)c1ccc(F)cc1,,,inactive
Cc1cc(C(=O)NCc2ccccc2Cl)c2c(C)nn(-c3cccc(F)c3)c2n1,,inactive: 12.8%,
Cc1ccc2oc(=O)n(CCNC(=O)Nc3ccc(Cl)cc3)c2c1,,inactive: 124%,
O=C(NCC(c1ccco1)S(=O)(=O)c1cccs1)c1ccc(Cl)cc1 (stereo not given),,inactive: 8.35%,
COc1ccc(-c2noc(CC(=O)Nc3ccc(C)c(F)c3)n2)cc1,,,inactive
COc1cc(OC)c(C2C(C(=O)Nc3ccccc3)=C(C)Nc3ncnn32)cc1OC (stereo not given),,inactive: -9.89%,
Cc1cc(Cl)ccc1NC(=O)CCCn1nc(C)c2c(C)n(-c3ccccc3)nc2c1=O,,inactive: 7.51%,
CCC1CN(C(=O)Nc2cc(Cl)c(OC)cc2OC)c2ccccc2O1 (stereo not given),,inactive: 31.9%,
Cc1cc(C)cc(NC(=O)CSc2nc3sc4c(c3c(=O)[nH]2)CCCC4)c1,,inactive: 0.428%,

SMILES,Potency,"activity change, negative = inhibition",outcome
CCc1ccc(C2c3c(oc4cc(C)c(C)cc4c3=O)C(=O)N2c2nc(C)c(C(=O)OC)s2)cc1 (stereo not given),,,inactive
CCN1CCN(c2oc(/C=C/c3cc(OC)c(OC)c(OC)c3)nc2C#N)CC1,,inactive: -23.2%,
CCCCN(C)S(=O)(=O)c1ccc(C(=O)Nc2ccc(-c3nc4ccc(C)cc4s3)cc2)cc1,,inactive: -27.3%,
CC(C)C(=O)OCc1cc(=O)n2nc(C3CC3)sc2n1,,inactive: -24.6%,
COc1cc(C2Nc3ccccc3-c3nnc(SCc4ccc(C)cc4)nc3O2)cc(OC)c1O (stereo not given),,inactive: -9.78%,
Cc1ccc(Nc2cc(C)c(C#N)c3nc4ccccc4n23)c(C)c1,,,inactive
COC(=O)c1sccc1S(=O)(=O)N(CC(=O)Nc1ccccc1)c1ccccc1,,,inactive
Cc1c(Cl)cccc1NC(=O)C1CCN(c2nc3ccccc3[nH]2)CC1,,,inactive
CCc1ccc(CNC(=O)c2cnc3c(C)cccn3c2=O)cc1,,inactive: -4.83%,
CCCC(=O)Nc1cccc(-c2cn3c(C)csc3n2)c1,,,inactive
CCc1nn(CC(=O)NCCCc2ccccc2)c(=O)c2cc3ccccc3n12,,inactive: 7.62%,
Cc1c(Cl)cccc1NC(=O)Cn1c(=O)n(Cc2nc(-c3ccccc3)no2)c(=O)c2cc3c(cc21)OCO3,,inactive: 11.6%,
Cc1ccc(Cn2c(=O)c3cccnc3n(CC(=O)Nc3cc(Cl)ccc3C)c2=O)cc1,,inactive: 0.529%,
CSc1ccc(CCNC(=O)c2cc3cc4cc(C)ccc4nc3s2)cc1,,inactive: -5.56%,
CC(C)c1cnc2c(c1SCC(=O)NC(C)(C)C)c(=O)n(C)c(=O)n2C,,,inactive
CCOc1ccc(N(C)C(=O)c2oc(=O)c3ccccc3c2-c2ccccc2)cc1,,inactive: 3.76%,
CCc1ccc(-c2nc(CS(=O)CC(=O)NCCc3ccc(C)cc3)c(C)o2)cc1 (stereo not given),,inactive: 0.716%,
Cc1ccc(CN(C(=O)c2ccc(OCC(C)C)cc2)c2ccccn2)o1,,inactive: -0.432%,
CCOC(=O)c1noc2nc(C)n(CC(=O)Nc3cccc(OC)c3)c(=O)c12,,inactive: -3.49%,
Cc1ccc(N(CC(=O)N2CCN(c3cc(C)ccc3C)CC2)S(=O)(=O)c2c(C)nn(C)c2C)cc1,,inactive: -1.45%,
CCn1cc2c(n1)-c1c(oc(C(=O)Nc3ccc(Br)cc3F)c1C)CC2,,,inactive
O=C(O)CC1c2ccccc2CCN1C(=O)Nc1cc(Cl)ccc1Cl (stereo not given),,inactive: -1.48%,
Cc1cccc2c1-c1sc(C(=O)Nc3ccc(F)cc3F)cc1CO2,,inactive: -0.812%,
CCc1c(C)c2ccc(O)c(CN3CCN(c4cc(Cl)ccc4C)CC3)c2oc1=O,,,inactive

SMILES,Potency,"activity change, negative = inhibition",outcome
CCc1ccc(S(=O)(=O)c2nnn3c2nc(N2CCN(c4ccccc4)CC2)c2cc(Cl)ccc23)cc1,,inactive: 8.64%,
CCCCC1CCC(C(=O)N2CC(=O)Nc3ccc(Br)cc3C2c2ccc(F)cc2)CC1 (stereo not given),,inactive: -7.99%,
Cc1cc(Cl)ccc1-n1c(CCC(=O)O)ccc1-c1cccs1,,inactive: -0.551%,
CN(C(=O)Cn1nc(Cc2cccnc2)c2ccccc2c1=O)c1cccc(C(F)(F)F)c1,,inactive: 17.9%,
CCCc1cc(=O)oc2c3c(ccc12)OCN(Cc1ccccc1OC)C3,,,inactive
Cc1ccc(CNC(=O)c2ccc(N3CCCC3)c(NC(=O)Nc3ccc(C)cc3)c2)cc1,,inactive: 1.43%,
Cc1ccc(CNC(=O)C(=O)Nc2c3c(nn2-c2ccc(F)cc2)CSC3)cc1,,inactive: -29.2%,
Cc1ccc(NC(=O)CN2C(=O)COc3ccc(S(=O)(=O)N4CCCCCC4)cc32)c(C)c1,,inactive: -2.04%,
CCC(=O)OCc1cc(=O)n2nc(C3CC3)sc2n1,,inactive: -19.7%,
O=c1c2sc3ccccc3c2n(Cc2cccc(F)c2)c(=O)n1CCc1ccccc1,,inactive: 7.38%,
CCN(CC)C(=O)Cn1c(=O)n(CCCCCC(=O)NCc2ccc3c(c2)OCO3)c(=O)c2sccc21,,,inactive
CC(=O)Nc1cccc(-c2nc(-c3ccccc3)no2)c1,,inactive: -9.84%,
CCOC(=O)c1ccc(N2C(=O)c3n[nH]c(-c4ccco4)c3C2c2ccc(C(=O)OC)cc2)cc1 (stereo not given),,inactive: 3.68%,
O=C(c1ccc2c(c1)N(Cc1ccc(Cl)cc1)C(=O)c1ccccc1S2(=O)=O)N1CCCC1,,inactive: -3.53%,
CCCCCCC(=O)Nc1ccc2nc3c(=O)n(C)c(=O)n(C)c3nc2c1C,,inactive: -0.471%,
CCCc1cnc2c(c1SCC(=O)NCc1ccc(C)cc1)c(=O)n(C)c(=O)n2C,,inactive: 13.5%,
Cc1cc(C)cc(OCC(=O)Nc2cccc3cccnc23)c1,,inactive: 6.99%,
COc1ccc(C)c2sc(NC(=O)c3ccc(S(=O)(=O)N(C)C)cc3)nc12,,inactive: 3.7%,
CCOc1ccc(CNC(=O)c2oc3c(c2C)-c2nn(Cc4cccc(Cl)c4)cc2CC3)cc1,,,inactive
CC(C)c1ccc(S(=O)(=O)N2CCN(Cc3cccc(F)c3)CC2)cc1,,inactive: -2.46%,
CCCCOc1ccccc1C1CC(=O)Nc2ccc3ccccc3c21 (stereo not given),,,inactive
COc1ccccc1CCNC(=O)Cc1c(C)c2cc(Cl)c(O)cc2oc1=O,,inactive: 9.89%,
COCCCn1c(=O)c2sccc2n2c(CCCC(=O)NCc3cccc(OC)c3)nnc12,,,inactive

# Source: PubChem BioAssay AID1963576 (National Center for Advancing Translational Sciences (NCATS), 2024)
